Source: the supplement of paper PMC11417369
± gives the standard deviation of the averaged measurements. The list shows a part of the results.

system: PfAP2-G AP2 domain (GST-tagged); assay: gcPBM binding intensity (ln(normalized median fluorescence intensity)); higher = stronger DNA binding
Outline: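 Each value is the highest Masliner-normalised natural-log median intensity across replicate spots of either orientation of a probe. The probes were primer-extended double-stranded 36-bp intergenic genomic sequences on an Agilent 4 × 180k array, alongside negative controls, exposed for 1 h to GST-tagged P. falciparum DNA-binding domains expressed in E. coli. Bound protein was picked up with Alexa488 anti-GST antibody and scanned at 488 nm.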

| Sequence | gcPBM binding intensity (ln) |
| --- | --- |
| TATATAATATAATGTAGTACATGTTTTATTTTTTAC [XGTACX_site7735] | 11.5 ± 0.79 |
| ATAAAATACAAAGGGACACACATATGAGTCTACAAA [CACACA_site3092] | 10.6 ± 0.4 |
| ATATTAACTTTTATTACACACTCTCAACTTTTATTT [CACACA_site6176] | 9.975 ± 0.021 |
| TCACAAATGTATTATACACACAAGTTTTCTTTAATA [CACACA_site4107] | 9.995 ± 0.092 |
| AAGTTATACACATCAACACACACATACAACGTGGTG [CACACA_site8312] | 10.4 ± 0.16 |
| TAAACACATTATATATGTACATAATAAAAAAAAAAA [XGTACX_site7907] | 11.2 ± 0.83 |
| TAAAAAAAGAAAAAAAGTACATGCTACTTTTATGAT [XGTACX_site7818] | 11.5 ± 1 |
| TGACGACATTTCTTATGTACTAATTTTTCTTCCTTT [XGTACX_site4391] | 11.2 ± 0.84 |
| TAATATATAATAAAGTGTACATATGCTTTATTATTA [XGTACX_site1920] | 11.2 ± 0.79 |
| CAAAATGATATGACAACACACAACCTATAGTAAGAC [CACACA_site1287] | 10.3 ± 0.23 |
| GTCATTAAAAAAATATGTACTTAAATGTATGCATAT [XGTACX_site5951] | 11.2 ± 0.71 |
| TGAATGCTTTTATGCACACGTACAAAAATATTATAT [CACACA_site2668] | 11.3 ± 0.95 |
| AATAAAAATAACCTAACATGCAAAAAAAAAAAAAAA [TGCATGCA_site718] | 9.69 ± 0.43 |
| ATGAATATTTACAATCTTATTATGTTCAAAATTAAT [CACACA_negctrl_site592] | 9.735 ± 0.064 |
| TACATGCTTATTTTAACACACAAATGGTAGTAATAA [CACACA_site766] | 9.97 ± 0.11 |
| GGAATATAAATACATACACACATATATATATATATA [CACACA_site4998] | 10 ± 0.23 |
| TATAATAAATCAAATGCACACACACTAATAAAAAAA [CACACA_site7937] | 10.1 ± 0.2 |
| TATATATTATATATATGTACTTATTTATTAATTTAT [XGTACX_site5253] | 11.4 ± 0.98 |
| TGTTGTTATAAAAAAAAAAAAAAAAAAAAAAAAAAA [GTGCAC_negctrl_site230] | 9.62 ± 0.2 |
| TGTGGTTTTTATAATTGTACATATATATAAATCTAT [XGTACX_site4766] | 11 ± 0.65 |
| ATATAAAATAAATAAGTGCAGATAAATTTATGTGAC [GTGCAC_site9504] | 10.25 ± 0.057 |
| TAATATATAATTTTATGTACATAATTATAAACCCAT [XGTACX_site919] | 11.3 ± 0.73 |
| TTTATACTTTCAAAATGTACATATATATATATATAT [XGTACX_site6241] | 11.1 ± 0.63 |

| Sequence | gcPBM binding intensity (ln) |
| --- | --- |
| ATTGAAGGGAAATATATAATCATATTCAAAATAAAA [CACACA_negctrl_site728] | 9.7 ± 0.12 |
| ATTTCTCTATCGTAATGTACAAAAAAAAGGGAAAAG [XGTACX_site1335] | 10.7 ± 0.47 |
| CTAATCATAAAATATACACACACGGATACATTAAAT [CACACA_site2685] | 10.2 ± 0.099 |
| AAAAAATACCAAAGGGGTACTTACACATAATACTTA [XGTACX_site2111] | 11.4 ± 1.1 |
| CTTTTTACTTAATACACACACACACCCAAAAAAAAA [CACACA_site948] | 10.6 ± 0.49 |
| CATCAAAATGAAGCATGTACATAATATAAATAAATA [XGTACX_site4647] | 11.1 ± 0.58 |
| TTTTTTTTTTTTTTTTTTTTTTTCTACCTATTTATT [CACACA_negctrl_site94] | 9.49 ± 0.42 |
| AATAATAAAAATATTGTGCACTTGTATATTTATTAT [GTGCAC_site9963] | 10.2 ± 0.2 |
| TATGTATATTGAGATTGTACTTGTAATATTAAACAT [XGTACX_site3878] | 11.3 ± 0.99 |
| TTGTATAAAATATGTAGTACAATAATATAACATTTT [XGTACX_site8607] | 11.5 ± 0.9 |
| ATATCAAATAATTTAGTGCACTTTTTTTTTTCTTTT [GTGCAC_site9629] | 10.5 ± 0.45 |
| GGTATTTTCACATATAGTACACAAAAATAAAATAAA [XGTACX_site2139] | 11.3 ± 0.85 |
| TTAAATAACCTCAAGGATAAGAAAAAATTAAAAATT [CACACA_negctrl_site1336] | 10.1 ± 0.12 |
| TTCTGTATACGGTGTGCACACAATTAAAAAAAAAAA [CACACA_site1416] | 10.9 ± 0.74 |
| AACATATAAAAATATGCACACACAGGAATACAAACA [CACACA_site8127] | 10.29 ± 0.064 |
| AATAAATACAAAAATGTACACACATATATATATTTT [CACACA_site9167] | 11.2 ± 0.73 |
| TCAATATATATAAGAAGTACATGTGAATGAAAAAAA [XGTACX_site1674] | 11.4 ± 0.81 |
| CTTTATATATATTGCGTGCACATTTTTTTTTTTTTT | 10.4 ± 0.33 |
| GAAATAATAAAATCGACACACAAAAAAAAAAAAAAA [CACACA_site3476] | 9.86 ± 0.52 |
| CTATTTAAAATTTGAACACACATTATTTATTTTAAA [CACACA_site3114] | 9.91 |
| AAAGTTATGATATATACACACATATAAATATTAAAT [CACACA_site6361] | 9.92 ± 0.014 |
| TGTTCTAATTTTAATTGTACATATATACATATATAT [XGTACX_site7290] | 11 ± 0.67 |
| GGATTTTACCATAGCACACATATATGAATATTTTTC [CACACA_site1814] | 10.1 ± 0.16 |

| Sequence | gcPBM binding intensity (ln) |
| --- | --- |
| CATTTTATTTTCTTTGTGCACAAAAATATTTTTTCT | 10.6 ± 0.18 |
| TTGTAACAAAAGTACACACACATTTCTATAAATTTT [CACACA_site2772] | 11.5 ± 1.1 |
| GTAAATATATATATATATATATATATATATATATAT [GTGCAC_negctrl_site239] | 9.96 ± 0.69 |
| TCTATACCTATTCTTACACACATATGTATTTATATA [CACACA_site4475] | 10.2 ± 0.042 |
| TTCTATGCATTTATAGTGCATGTAAAATATAAGATA [GTGCAC_site9466] | 9.98 ± 0.26 |
| AATTATATTTAGTATATGCACACTTTATGTTTGTTA [CACACA_site2025] | 9.88 ± 0.12 |
| GTAGAAAGAAAAATTAGTACTTAAATATTATAAAAA [XGTACX_site8458] | 11 ± 0.49 |
| CATATATATATATGAACACACAAAAAGAATATTTCC [CACACA_site1493] | 10.41 ± 0.092 |
| TTTAAAAAAAAAAAAAATTTTTTTTTTTTTTTTTTA [CACACA_negctrl_site1415] | 9.26 ± 0.2 |
| ATATATTTTTAATATGCACACAAGAATACATTCACA [CACACA_site914] | 10.2 ± 0.11 |
| TTAAAAAATCACAACACACACACACCCAAAAAAAAA [CACACA_site1445] | 10.3 ± 0.4 |
| GACTTTTTCATTTTTAGTACACATATATATTTCCCT [XGTACX_site3511] | 11.4 ± 0.73 |
| AAAAAAAAAAAACATACACACACACTAATATTTATA [CACACA_site8038] | 9.895 ± 0.021 |
| TTTTAAAAAATATAATAATATAAATATTTTATACGT [TGCATGCA_negctrl_site252] | 9.51 ± 0.33 |
| TGATAAATATTATGTTGTACTTTCTGCCCTTCACAT [XGTACX_site5168] | 11.3 ± 0.95 |
| TTTCCCATAGGAAAAACACACATATATTATAGATAA [CACACA_site7019] | 9.84 |
| TATGCTATTATATATGTACACACCAATTTATTTATA [CACACA_site3918] | 11.3 ± 0.74 |
| ATTATGCACGGACACACACACACACCCCTAAAAAAT [CACACA_site5426] | 11.2 ± 0.96 |
| TGTTAACCACAAAAATAAAATAAAATAAAAATAATA [XGTACX_negctrl_site535] | 9.94 ± 0.18 |
| AAAAAAAAAAAATAGAAAAAAAAATAAAATAAAAAA [CACACA_negctrl_site562] | 9.45 ± 0.042 |
| TGTATATAATTTATATGTACATATATTTTATTTTGT [XGTACX_site1905] | 11.4 ± 0.86 |
| GAGAGAGAAATATGCACACATAAGGGAAATAAATAA [CACACA_site1153] | 10.2 ± 0.27 |
| GAAAAAAAAAGTTAAGCACACACATGAATAAATAAT [CACACA_site8179] | 10.05 ± 0.099 |

| Sequence | gcPBM binding intensity (ln) |
| --- | --- |
| TTTTGATGCTTTAAATGTACAAGGGTTCTTATGAAA [XGTACX_site831] | 10.6 ± 0.39 |
| AAACCAAAAATAACACGTACAAAAATAAAAAGTATA [XGTACX_site4261] | 11.2 ± 0.74 |
| AAAACATATTTTAAAAGTACTTGAAAAAAAATTTTC [XGTACX_site3940] | 11 ± 0.56 |
| AAAAAATTTGTTTATTGTACAGAAAGAATTATTATA [XGTACX_site6549] | 10.9 ± 0.6 |
| TTGTAGGTAAATATGTGTACGCATTATTATTCTTAA [XGTACX_site216] | 11.5 ± 0.94 |
| TTATACCTATATTTAACACACATTTGATAAAGTGCC [CACACA_site6732] | 9.76 ± 0.099 |
| TGGAGATTTTTAAAGACACACAGGTAAGAATAATAA [CACACA_site1582] | 10.01 ± 0.049 |
| AAAAAAAACAGACACATACACACAAAAATGTTATAA [CACACA_site82] | 10 ± 0.16 |
| ACCATTTTTATGTATAAACACACGTACCCGCACTAA [CACACA_site1604] | 11.3 ± 0.77 |
| GAGAGAGAAATAAAAAGTACATACATATATATACAT [XGTACX_site2267] | 11.5 ± 0.98 |
| AATATATAAATTGACACACACATATATACCTATATA [CACACA_site4803] | 10.065 ± 0.007 |
| AATATAAACACAAACACACACATATAGATTTATATA [CACACA_site6263] | 9.95 ± 0.028 |
| CACAATGGTTTATATACACACTGTTGCAAATTCTTC [CACACA_site5659] | 10.1 ± 0.11 |
| ATTCTTACTAATATCGCACACACATATGTAGACGGG [CACACA_site88] | 10.2 ± 0.15 |
| TATTTTTTATGATTAACACACACACTAATAAAAAAA [CACACA_site9370] | 10.4 ± 0.4 |
| TATATATATATATATAGTACGCACACATAGTTGCAA [XGTACX_site5875] | 11.1 ± 0.67 |
| AAAAAAAAAAAAAAAAGTACAAAAAGGAGAAAGATA [XGTACX_site7862] | 11.4 ± 0.95 |
| ATTTTTTTATTTTTGTGTACTTATAAGAATATTAAT [XGTACX_site4850] | 11.7 ± 1.1 |
| AATGAATATATTTATTGTACATATATGAATATTGCA [XGTACX_site8689] | 11.2 ± 0.66 |
| AATATTTAAAACATATGTACTGAAAAACAATTGGAC [XGTACX_site6360] | 11.1 ± 0.57 |
